Experimental data from the supplement of paper PMC4967469.

Key:
Assay in all cases: Viability of human cancer cell lines after 72 h of drug (GDSC screen)
QL-XI-92 = compound: C=CC(=O)Nc1cc(NC(=O)c2ccc(C)c(NC(=O)c3ccno3)c2)cc(C(F)(F)F)c1 [QL-XI-92]; conditions: top dose 10.24 µM; top dose inferred
Protocol: (§1)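 Human cancer cell lines in 384-well plates, medium with 10% serum, drug for 72 h over a 256-fold dose range (nine 2-fold or five 4-fold steps up to the top dose). Adherent lines were fixed and stained with the nucleic acid dye Syto60, suspension lines read with resazurin; signal relative to control wells, capped at 0 and 100%. One two-parameter sigmoid per drug and line, fitted in a mixed model over all curves with the slope shared within a line.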

Vinorelbine = compound: CCC1=C[C@@H]2CN(C1)Cc1c([nH]c3ccccc13)[C@@](C(=O)OC)(c1cc3c(cc1OC)N(C)[C@H]1[C@@](O)(C(=O)OC)[C@H](OC(C)=O)[C@]4(CC)C=CCN5CC[C@]31[C@@H]54)C2 [Vinorelbine]; conditions: top dose 0.064 µM; top dose inferred
Protocol: as §1

AG-014699 = compound: CNCc1ccc(-c2[nH]c3cc(F)cc4c3c2CCNC4=O)cc1 [AG-014699]; conditions: top dose 5 µM; top dose inferred
Protocol: as §1

XL-184 = compound: COc1cc2nccc(Oc3ccc(NC(=O)C4(C(=O)Nc5ccc(F)cc5)CC4)cc3)c2cc1OC [XL-184]; conditions: top dose 5.12 µM; top dose inferred
Protocol: as §1

WHI-P97 = compound: COc1cc2ncnc(Nc3cc(Br)c(O)c(Br)c3)c2cc1OC [WHI-P97]; conditions: top dose 10.24 µM; top dose inferred
Protocol: as §1

Gefitinib = compound: COc1cc2ncnc(Nc3ccc(F)c(Cl)c3)c2cc1OCCCN1CCOCC1 [Gefitinib]; conditions: top dose 0.5 µM
Protocol: as §1

Phenformin = compound: N=C(N)NC(=N)NCCc1ccccc1 [Phenformin]; conditions: top dose 4000 µM; top dose inferred
Protocol: as §1

EHT 1864 = compound: O=c1cc(CN2CCOCC2)occ1OCCCCCSc1ccnc2cc(C(F)(F)F)ccc12 [EHT 1864]; conditions: top dose 10 µM; top dose inferred
Protocol: as §1

NU-7441 = compound: O=c1cc(N2CCOCC2)oc2c(-c3cccc4c3sc3ccccc34)cccc12 [NU-7441]; conditions: top dose 2 µM; top dose inferred
Protocol: as §1

| Cell Line | AUC (QL-XI-92) | IC50 (QL-XI-92) | AUC (Vinorelbine) | IC50 (Vinorelbine) | AUC (AG-014699) | IC50 (AG-014699) | AUC (XL-184) | IC50 (XL-184) | AUC (WHI-P97) | IC50 (WHI-P97) | AUC (Gefitinib) | IC50 (Gefitinib) | AUC (Phenformin) | IC50 (Phenformin) | AUC (EHT 1864) | IC50 (EHT 1864) | AUC (NU-7441) | IC50 (NU-7441) |
| --- | --- | --- | --- | --- | --- | --- | --- | --- | --- | --- | --- | --- | --- | --- | --- | --- | --- | --- |
| SBC-3 (small cell lung carcinoma, adherent) | 0.612 | 1.26 µM | 0.542 | 0.00515 µM | 0.952 | > 5 µM | 0.9 | > 5.12 µM | 0.958 | > 10.2 µM | 0.989 | > 0.5 µM | 0.882 | 3560 µM | 0.972 | > 10 µM | 0.984 | > 2 µM |
| SBC-5 (small cell lung carcinoma, adherent) | 0.993 | > 10.2 µM | 0.463 | 0.00323 µM | 0.972 | > 5 µM | 0.978 | > 5.12 µM | 0.993 | > 10.2 µM | 0.993 | > 0.5 µM | 0.87 | 2600 µM | 0.924 | > 10 µM | 0.993 | > 2 µM |
| SCC-9 (head and neck, adherent) | 0.876 | > 10.2 µM | 0.425 | 0.00236 µM | 0.968 | > 5 µM | 0.799 | 3.29 µM | 0.8 | 6.63 µM | 0.968 | > 0.5 µM | 0.544 | 341 µM | 0.924 | > 10 µM | 0.975 | > 2 µM |
| SCC-25 (head and neck, adherent) | 0.918 | > 10.2 µM | 0.64 | 0.0103 µM | 0.971 | > 5 µM | 0.818 | 3.38 µM | 0.866 | > 10.2 µM | 0.904 | > 0.5 µM | 0.299 | 62.4 µM | 0.941 | > 10 µM | 0.98 | > 2 µM |
| SF268 (glioma, adherent) | 0.91 | > 10.2 µM | 0.7 | 0.0153 µM | 0.921 | > 5 µM | 0.951 | > 5.12 µM | 0.977 | > 10.2 µM | 0.985 | > 0.5 µM | 0.964 | > 4000 µM | 0.975 | > 10 µM | 0.973 | > 2 µM |
| SF295 (glioma, adherent) | 0.955 | > 10.2 µM | 0.666 |  | 0.945 | > 5 µM | 0.912 | > 5.12 µM | 0.985 | > 10.2 µM | 0.945 | > 0.5 µM | 0.834 | 2890 µM | 0.871 | > 10 µM | 0.964 | > 2 µM |
| SF539 (glioma, adherent) | 0.851 | 6.64 µM | 0.677 | 0.0118 µM | 0.935 | > 5 µM | 0.878 | 4.28 µM | 0.976 | > 10.2 µM | 0.988 | > 0.5 µM | 0.726 | 1010 µM | 0.96 | > 10 µM | 0.974 | > 2 µM |

IC50 is the fitted dose that halves viability relative to control wells, and lower means more sensitive; a limit (>, <) means that the fit lies beyond the doses tested. AUC, from the same fit, is the share of area under the viability curve across the 256-fold dose range: 1 means no effect, lower means more sensitive. For some assays here: Any top dose called inferred was derived from the fitted curves, not read from the paper.
